# Experimental data reported in publication PMC10668032.
# The list shows a part of the results. At the low end of the ranking the order means little.
# Target: SIX1-Q177R homeodomain (UniProt Q15475)
# Assay: universal protein binding microarray
# Conditions: Universal all-10-mer PBM (8x60K, AMADID 030236), 300 nM GST-tagged protein, Alexa Fluor 488 anti-GST; buffer, salt, pH and temperature not stated; high values mean tight binding; most listed sequences are background and not binding sites; double strand, one strand shown
row,Sequence,binding signal [E-score]
1,AAGGCTTA,-0.276
2,CGCGCCCG,-0.0876
3,CGCAGTAG,-0.0157
4,ATCTAGAT,-0.214
5,ATTCCCGC,-0.165
6,ACATTTCC,-0.00185
7,AATATAGT,-0.192
8,CTTCTGTA,-0.155
9,GGTGTAAC,0.482
10,ACTATGCA,0.0836
11,GAGCTTAA,-0.18
12,ACACCATA,0.459
13,ATTTATAA,-0.0933
14,CCATAACA,0.214
15,CCTACACA,0.18
16,CATACAGA,-0.156
17,CTTGACCA,-0.123
18,AGATAGAG,-0.124
19,ATCGTTAG,-0.0369
20,CACATTAG,-0.0111
21,GGCGCAGA,-0.185
22,CAAGTACA,0.207
23,GGCAGGTA,0.0271
24,ATATCGGC,-0.127
25,GTGTAAAC,0.445

row,Sequence,binding signal [E-score]
1,AGCCATAC,-0.121
2,AAGTAACC,-0.0953
3,AACACCAC,0.483
4,CCTGTGCC,-0.131
5,GGCACAGA,-0.125
6,AAATCCGG,0.0193
7,AAATCTAA,0.0496
8,GGATGGCA,-0.0819
9,AGGACTTG,-0.0792
10,AATACATA,0.0735
11,GCGAAAAC,-0.0713
12,ATAGTCAA,-0.239
13,AATTCTAA,0.0392
14,AGATTTGA,-0.121
15,GTTAACTA,-0.00156
16,GTCTGTCA,-0.193
17,GCAAGAGC,-0.103
18,ACAGGCAA,-0.144
19,ACGCGGAT,0.108
20,CCAACCGG,-0.0307
21,GCAGGTCC,-0.0616
22,ACGCGCGT,-0.0765
23,TGGTCTAA,-0.122
24,ACTGATCG,0.00294
25,CAGTTGAG,-0.179

row,Sequence,binding signal [E-score]
1,AGTAGGCC,-0.101
2,TCATGGCA,-0.113
3,ACCACGAA,0.111
4,ATTACTGG,-0.149
5,CAGGGATC,0.181
6,GAAGTTCC,-0.263
7,AAGCGGGC,-0.229
8,GCGGACAA,-0.181
9,CACATTCG,0.0353
10,CCCAGGTA,0.203
11,GAAACCCC,0.181
12,ACTAACAA,0.00855
13,ACCGGTAG,0.0653
14,GGAAGACC,-0.11
15,CATAAAGC,-0.26
16,GTAGTGAC,0.26
17,GTCGCTCA,-0.112
18,TCTATGAA,-0.0351
19,CCTTAGGC,0.092
20,CAGAGAAG,-0.19
21,GCATAGGC,-0.146
22,CAGTACGC,0.0598
23,CGCTTTAA,-0.0982
24,GGGCTACA,0.0987
25,AAATTACA,0.0701

row,Sequence,binding signal [E-score]
1,GTGCACCA,0.246
2,ACGTATAT,-0.0722
3,ACCATTCA,0.129
4,CCATTCTA,0.0416
5,ACAGCTGT,-0.346
6,CTTTTCTC,-0.252
7,GAACTATA,-0.172
8,CAGTCCGA,-0.13
9,GCGTGCAC,0.0793
10,ACCCGAGT,0.259
11,CTAAGTGC,-0.0858
12,CCATAGCG,0.044
13,ACGCTCAA,-0.158
14,AGTCCTAT,-0.142
15,CCATTCCC,-0.16
16,CACTTAAC,0.101
17,ACTATGGG,0.0873
18,ATACCACA,0.095
19,ATTTGTCC,-0.203
20,CACGTCAA,0.144
21,ACCGCCAT,-0.182
22,ATTCGAGG,-0.119
23,AGTTACCA,0.0232
24,AATGAGGC,-0.038
25,ATATATAC,0.154

row,Sequence,binding signal [E-score]
1,CCATGATA,0.0428
2,ATCACAGC,-0.124
3,ACGGCAAG,0.0711
4,ATCACCTG,0.00103
5,TACTACAA,-0.0955
6,ATGTGTGC,0.0297
7,CCAACAAC,0.211
8,CCGGGCAC,0.0302
9,CAACCAAG,0.0319
10,CTTCCCTC,-0.105
11,TATTGAGA,-0.0629
12,ACGAAATG,-0.0821
13,AAGATCAC,-0.122
14,CTTCGACA,0.228
15,AGGAGACA,-0.0261
16,CCGAGCTC,-0.201
17,ATTAGTAG,-0.0264
18,CTTGGTTA,0.00343
19,AAGCATCC,-0.238
20,CCAGGAAA,-0.0977
21,CGGTCCTA,-0.0476
22,ATTGAATA,-0.17
23,CGGTTGCC,-0.139
24,CCATTAGC,-0.0639
25,CGACATCA,-0.0385

row,Sequence,binding signal [E-score]
1,CCAGATGG,-0.0118
2,GTGATGAA,-0.197
3,CTCGAAAC,-0.157
4,CTACGGTA,0.00271
5,ATGGATAC,0.278
6,TAGTAGCA,0.159
7,GTAGTATA,0.0458
8,CCGGAATA,0.0294
9,AGACCCAC,-0.116
10,AGTTGTAC,0.0218
11,TCGACAAA,-0.115
12,ATTGAGGC,-0.237
13,GCGTAGTA,-0.0758
14,AGACATAA,-0.0483
15,TTAGCAAA,0.0029
16,ATACGGAC,0.0466
17,CACTCACG,0.222
18,CGTGGTTA,-0.0901
19,CCCAGCCG,0.0778
20,ACGTCGGG,0.143
21,AGCGGGAA,-0.302
22,GAGCACGC,0.104
23,GCTGTAAA,-0.39
24,AATATTGG,0.0973
25,GAAGGGTA,0.169

row,Sequence,binding signal [E-score]
1,AACAAAGG,-0.131
2,AGATGCGC,-0.26
3,GGCTCAGA,0.0505
4,GCTTAGTA,0.0166
5,TGGAGCCA,-0.151
6,ACAGACTC,-0.14
7,CATGTCGC,0.145
8,CCGAAAAG,-0.0765
9,ATTTCCGG,-0.0158
10,GGACTGCC,-0.0957
11,CCGTAAGG,-0.0914
12,ACGTGACG,-0.0125
13,GGGTATCA,0.39
14,CGCTAGAA,-0.214
15,CGACATCG,-0.0467
16,CAGTAATC,-0.106
17,ACGTCCGC,-0.203
18,AGGTCATA,-0.193
19,AAATAACT,0.0176
20,ATTCCCAG,-0.136
21,CAGTCGTA,-0.174
22,CAATCGAG,-0.019
23,CACCGTGC,0.327
24,CTTTTAGA,-0.327
25,AGTTAGAA,-0.013

row,Sequence,binding signal [E-score]
1,GGGAAGTA,-0.173
2,AACGGGAC,-0.0336
3,TCCGAGCA,-0.102
4,AGGTAGTC,-0.15
5,GACTATTA,-0.121
6,CCAAAGAC,-0.0792
7,CGCCCCAA,0.0537
8,GATGCTCC,-0.234
9,TGTCATAA,0.199
10,AAAAATCA,-0.0976
11,AACGAACT,-0.239
12,ACCGTTCT,-0.0363
13,AAGGAGAT,-0.23
14,GAATCCCA,0.0697
15,GCTGCTCC,-0.108
16,GTCATCGA,0.0437
17,ATGATCTG,0.0531
18,AGCACCAC,0.272
19,ATTATCCC,-0.0543
20,ATGGGTAG,0.139
21,TACTCACA,0.0277
22,GAAAGTAC,-0.0609
23,CTAATATA,-0.00496
24,CAGGCCGG,-0.0398
25,TATGTTGA,-0.0868

row,Sequence,binding signal [E-score]
1,GACAATAA,-0.05
2,ATTCAAAG,-0.364
3,ATCTCAGG,-0.195
4,AAATTGCA,-0.178
5,ATGGGATG,-0.15
6,AGAAATGC,-0.00611
7,GCACGCGA,0.0562
8,CGCGGCCG,-0.0482
9,CCATGTGC,-0.0955
10,GCGGGCCA,-0.133
11,AGACAGGG,0.0258
12,GCCGCGTA,-0.0196
13,CCTTATTA,-0.0628
14,ACACGGAA,0.398
15,AAGCGTTA,-0.166
16,AACGTATC,-0.0789
17,ACTTCGTC,-0.0524
18,AGCGAGGG,0.102
19,AGCACCTA,0.0399
20,AGCTCTAT,-0.125
21,CCGCGGTC,-0.0471
22,AGCCCTTC,-0.249
23,CTACTTTA,-0.224
24,GCGAATCA,-0.259
25,AATCACAC,0.348

row,Sequence,binding signal [E-score]
1,ACGTGAGC,-0.191
2,AACTCCTT,-0.125
3,ACGCCCTC,0.119
4,GTCCGGAC,-0.00607
5,GTGTCTCA,0.371
6,GGTGGAAC,-0.168
7,AGCTACGC,-0.105
8,CTCAATCA,-0.151
9,GAGAGTAA,-0.0729
10,CTGAAACA,-0.0361
11,GCAATTGA,-0.0892
12,AGTACATG,0.00515
13,AGAAACAA,-0.274
14,ACGCGTGA,0.0924
15,GTGAGCGA,0.00318
16,ACAGTGCC,-0.112
17,TAGGTTGA,-0.0145
18,CTGAGCAA,-0.137
19,GTATGAGA,0.00311
20,CAGGCGCG,-0.203
21,AGAGGTGG,-0.182
22,ATATGAGA,0.0136
23,ATCCGGCC,-0.0711
24,AGTGGAAC,-0.0477
25,ATAAATCG,-0.326

row,Sequence,binding signal [E-score]
1,CAAGAGGA,-0.148
2,ATTGTCTC,-0.219
3,AAAGACGC,-0.186
4,TCCGTCGA,-0.083
5,GCTTCAAA,-0.21
6,CCAGGTAG,0.0625
7,ACGTGATC,0.0996
8,GCCTCGTA,-0.134
9,CCCTCTCA,-0.0263
10,ACACGCGA,0.369
11,AAGCCCCC,-0.126
12,CGCGGGGC,-0.0476
13,GTTGTTTA,0.0202
14,TGTAAAAA,0.0846
15,AACTACGC,0.00745
16,GTGTAGAA,0.427
17,ACCCGCGT,0.229
18,GCTTTTTA,-0.242
19,AATTTCCA,0.0255
20,CCGTTTCA,0.0765
21,CAGCTCCC,-0.032
22,GCCGCCAC,-0.0223
23,ATTATGCG,-0.0604
24,AGTTCATG,-0.0645
25,ATTGAGTG,0.18

row,Sequence,binding signal [E-score]
1,GTGGCTAA,-0.0849
2,ACGGAAGT,-0.121
3,CGATGGTA,-0.223
4,CAGTCTGA,-0.144
5,ACCTTTAT,-0.0534
6,AATCCGGA,0.0699
7,ACTTGAAT,-0.0688
8,CCCTTATC,-0.00344
9,CACACAAC,0.153
10,AACTTTAT,-0.127
11,GACGCACC,0.118
12,AATCCGAA,-0.139
13,ATAATTCA,-0.0898
14,ACATTAAC,0.0664
15,GCGGCCAA,-0.0563
16,CATACAAA,-0.211
17,AGTGTATC,0.399
18,AACACCCG,0.466
19,CTGGAAGC,-0.139
20,TAATCTAA,-0.213
21,GGGGTAAC,0.293
22,ACTCACAT,-0.0446
23,CCGGCATC,-0.00753
24,CTTTAAAG,-0.281
25,CCTAATAG,-0.0484

row,Sequence,binding signal [E-score]
1,ACGCGTCG,0.0532
2,AACCCTAC,0.147
3,CCGTGAGG,0.0995
4,AAAATAAT,-0.042
5,CTAACATC,0.0617
6,AATGTCCA,-0.174
7,TAGACAAA,-0.0331
8,AAGTGTGT,0.215
9,CACTATCA,0.141
10,TCGCACAA,0.00025
11,CTCTGCGC,-0.0232
12,GGCCGGCC,-0.231
13,GTCTGCAC,-0.0613
14,ACACCCTG,0.473
15,AATGCACT,-0.0269
16,AACGTTTA,-0.248
17,CATAATGC,-0.12
18,ATGTCGAC,-0.168
19,ACTGGGCC,-0.133
20,ACATGGGG,0.12
21,AGACCGGC,-0.103
22,AATTGAGC,-0.136
23,CAGGCCAA,-0.223
24,ACACGATG,0.391
25,AGTCCGTG,0.0517

row,Sequence,binding signal [E-score]
1,ATGAACAA,-0.31
2,ATCCATCG,-0.137
3,AATTCTCC,-0.133
4,CTCTATTC,0.0954
5,GGAACCGA,-0.103
6,ACATGGTA,-0.00895
7,GAGCTTCC,-0.181
8,ATTCTGCA,-0.212
9,AACAGGCG,0.0273
10,GGACTCAC,-0.181
11,AGTATCAT,0.259
12,CAAAGTTC,-0.172
13,GACCCCGA,0.253
14,CCTAACTC,-0.0299
15,CATCCGCG,-0.0167
16,CATCCCCC,0.14
17,GATCGATA,0.146
18,ATTCCAGC,-0.163
19,CGGTGTAC,0.487
